From ChEMBL document CHEMBL1201862, “PubChem BioAssay data set” (2004)

The molecules below were run on NCI-H322M (assay: NCI-60 cell line screen, 48 h).
With CCOC(=O)/C(=C\Nc1c(C)n(C)n(-c2ccccc2)c1=O)C(=O)c1ccccc1 the GI50 was inactive: > 100 µM.
For Cc1c(/C=N/N(C)C)oc2c1cc(O)c1ncccc12, the GI50 was inactive: 1.96 µM.
N=C(N)NS(=O)(=O)c1ccc(Nc2c3ccccc3nc3c(C(=O)NCCO)cccc23)cc1 was tested, and the GI50 was active: 0.17 µM.
In the case of N#C/C(=C\c1cc(OCc2ccccc2)c(OCc2ccccc2)cn1)C(N)=O, the GI50 is reported as inactive: > 100 µM.
For COc1cc2c(cc1OCCCOc1cc3c(cc1OC)C(=O)N1CCC[C@H]1CN3)N=C[C@@H]1CCCN1C2=O, the GI50 was active: 0.237 µM.
For Clc1cc(Cl)c2n[se]nc2c1, the GI50 was inactive: > 100 µM.
With Cc1ccccc1C(C#N)C(=O)C(=O)Nc1cccc(Cl)c1 (stereo unspecified) the GI50 was inactive: > 100 µM.
In the case of C[N+](C)(C)[BH-](Br)C(O)O (stereo unspecified), the GI50 is reported as inactive: > 100 µM.
In the case of C1=N\CCNCCNCC/N=C\c2ccc(cc2)OCc2cccc(n2)COc2ccc/1cc2, the GI50 is reported as inactive: > 100 µM.
With CC(=O)Nc1ccc(N2C(=O)CS(=O)(=O)C2c2cccc(Oc3ccccc3)c2)cc1 (stereo unspecified) the GI50 was inactive: 17.5 µM.
In the case of Brc1ccc2c(-c3nc(-c4c[nH]c5ccccc45)cs3)c[nH]c2c1, the GI50 is reported as inactive: > 43.5 µM.
In the case of CN1CCC2(CC1)SC[C@H]1C(=O)N(c3ccc(Cl)cc3)C(=O)N12, the GI50 is reported as inactive: > 100 µM.
CN(C)c1ccc(-c2cc(O)c3cc4c(cc3n2)OCO4)cc1 was tested, and the GI50 was inactive: > 100 µM.
In the case of c1ccc(COC2NCCN2Cc2ccccc2)cc1 (stereo unspecified), the GI50 is reported as inactive: > 100 µM.
For O=C1O[C@H](c2ccccc2)[C@@H]2CC3(CCN12)OCCO3, the GI50 was inactive: > 100 µM.
For CCOC1=C2N=C(Cc3ccccc3F)N=C2C(=O)c2ccccc21, the GI50 was inactive: > 100 µM.
C=C1C(=O)OC2/C=C(\C)C(OC(C)=O)C3OC3C(C)(O)CC(OC(=O)/C(C)=C/C)C12 (stereo unspecified) was tested, and the GI50 was inactive: 17.7 µM.
In the case of CCN1CCCCCCCCCC(=N/O)/C(=N\O)C1, the GI50 is reported as inactive: > 100 µM.
In the case of Cc1nc2cccc([N+](=O)[O-])c2c(NCCCN(C)C)c1C, the GI50 is reported as inactive: 30 µM.
With CN(C)C(=O)Oc1c(-c2ccccc2)c(=O)n2c3ccccc3n3c(=O)n(C)c(=O)c1c23 the GI50 was inactive: > 100 µM.
In the case of O=C1c2c[nH]nc2C(c2ccccc2)N1c1ccccc1 (stereo unspecified), the GI50 is reported as inactive: > 10 µM.
In the case of CN1OC(=O)N(C)C1c1ccccc1 (stereo unspecified), the GI50 is reported as inactive: > 100 µM.
For C=C(C)C1Cc2c(cc(O)c3c(=O)c4c(oc23)C(O)Oc2cc(OC)c(OC)cc2-4)O1 (stereo unspecified), the GI50 was inactive: > 10 µM.
For COC1=CC(=O)C(C2CC(=O)c3c(O)cc(O)cc3O2)=CC1=O (stereo unspecified), the GI50 was inactive: 42.9 µM.
CO[C@H]1C[C@H](O[C@H]2CC[C@]3(C=O)[C@H]4CC[C@]5(C)[C@@H](C6=CC(=O)OC6)CC[C@]5(O)[C@@H]4CC[C@]3(O)C2)O[C@H](C)[C@H]1O [CYMARIN] was tested, and the GI50 was active: 0.325 µM.
In the case of CCc1nc(N)nc(N)c1-c1ccc(Cl)c(N=[N+]=[N-])c1, the GI50 is reported as inactive: 6.73 µM.
O=C1NC(=S)NC(=O)C1C(c1ccc(O)cc1)C1C(=O)NC(=S)NC1=O.c1ccncc1 was tested, and the GI50 was inactive: > 100 µM.
With COc1cccc(C2c3cc4c(cc3OC(NNc3ccccc3)C2C)OCO4)c1OC (stereo unspecified) the GI50 was inactive: 13.9 µM.
With COc1ccc(/C=C/C(=N/NC(=O)N/N=C(/C=C/c2ccc(OC)cc2)C(C)C)C(C)C)cc1 the GI50 was inactive: > 100 µM.
COc1ccc2nc3cc([N+](=O)[O-])ccc3c(NNc3ccc(Cl)cc3)c2c1 was tested, and the GI50 was inactive: 46.9 µM.
O=C(Nc1ccn(C2CC(I)C(COC(c3ccccc3)(c3ccccc3)c3ccccc3)O2)c(=O)n1)c1ccccc1 (stereo unspecified) was tested, and the GI50 was inactive: 16.8 µM.
For CC(C)=CC1C(C(=O)OCc2cc3c(cc2Cl)OCO3)C1(C)C (stereo unspecified), the GI50 was inactive: > 100 µM.
In the case of c1cc2[se][se]c3c4cccc5[se][se]c(c(c1)c23)c54, the GI50 is reported as inactive: > 100 µM.
In the case of CC1OC(OC23C(=O)CC(C)(O)CC2(O)C=CC2=C3C(=O)c3ccc(C4CC(OC5CCC(OC6CC(O)C(O)C(C)O6)C(C)O5)C(O)C(C)O4)c(O)c3C2=O)CCC1O (stereo unspecified), the GI50 is reported as inactive: 26.6 µM and inactive: 27.5 µM.
CC(=O)OCCN1c2ccccc2Sc2cnccc21 was tested, and the GI50 was inactive: > 10 µM.
For C#CCOC(=O)c1ccc(OC(C)=O)cc1, the GI50 was inactive: > 100 µM.
In the case of CCOC(=O)C1COc2cc(-c3cc(=O)c4ccccc4o3)ccc2O1 (stereo unspecified), the GI50 is reported as inactive: > 100 µM.
COc1ccc(C#CCC(OC2OC(CO)C(O)C(O)C2O)C(O)c2ccc(OC)c(OC)c2)cc1OC (stereo unspecified) was tested, and the GI50 was inactive: > 100 µM.
With CC(C)=CC(=O)Cc1nc2ccccc2[nH]c1=O the GI50 was inactive: > 100 µM.
With Nc1nc(O)c2ncn([C@H]3CC[C@@H](CO)O3)c2n1 the GI50 was inactive: > 100 µM.
In the case of c1ccc(-c2cnc(-c3ccc(-c4ncc(-c5ccccc5)o4)cc3)o2)cc1, the GI50 is reported as inactive: > 100 µM.
In the case of Cn1c(=O)n2c(=O)n(C)c(=O)n2c1=O, the GI50 is reported as inactive: > 100 µM.
For CC1(C)CC[C@]2(C(=O)O)CC[C@]3(C)C(=CC[C@@H]4[C@@]5(C)CC[C@H](OC6OC(C(=O)O)C(O)C(O)C6O)C(C)(C)[C@@H]5CC[C@]43C)[C@@H]2C1 (stereo partly specified), the GI50 was inactive: 13.3 µM.
With CN1Cc2cc(O)c(O)cc2C(O)C1 (stereo unspecified) the GI50 was inactive: > 100 µM.
In the case of O=C(CCCl)NN=C1NCCCCN1, the GI50 is reported as inactive: > 100 µM.
c1ccc(CSc2nc(N3CCCCC3)c3cn[nH]c3n2)cc1 was tested, and the GI50 was inactive: 29.7 µM.
C=CCn1c(=O)ccn(/C(=C/C(=O)OCC)C(=O)OCC)c1=O was tested, and the GI50 was inactive: 40.4 µM.
In the case of N#C/C(c1nc2ccccc2[nH]1)=c1\s/c(=C/c2ccccc2)c(=O)n1-c1ccccc1, the GI50 is reported as inactive: > 100 µM.
For C[C@]12CC[C@H]3[C@@H](CCC4=CC(=O)C=C[C@@]43O)[C@@H]1CCC2=O, the GI50 was inactive: 68.4 µM.
N#Cc1c(O)c(/C=N/c2ccc(Cl)cc2)c(=O)n2c1[nH]c1ccccc12 was tested, and the GI50 was inactive: > 100 µM.
CC1=C(C(=O)NNC(=O)c2ccccc2)CC(C(=O)NNC(=O)c2ccccc2)=C(C)N1 was tested, and the GI50 was inactive: > 100 µM.
For COC(=O)C1=C(c2ccc3c(c2)OCO3)O[C@H](c2ccc3c(c2)OCO3)[C@H]1COC(C)=O, the GI50 was inactive: > 100 µM.
CN(C)CCCCC1CCN(CC(=O)N2c3ccccc3NC(=O)c3ccccc32)CC1 was tested, and the GI50 was inactive: > 10 µM.
With Cc1ccc(NC(=O)CC2C(=O)Nc3ccccc3[S+]2[O-])cc1C (stereo unspecified) the GI50 was inactive: > 100 µM.
COc1ccc(OC)c(NC(=O)CCC/C(CC(=O)c2ccc(O)c(OC)c2)=N\Nc2nnc(C)n2N)c1 was tested, and the GI50 was inactive: > 100 µM.
With C#CC[N+](C)(CC#C)CC#C the GI50 was inactive: > 100 µM.
In the case of CCC1(C(=O)OC)CCc2c(OC)ccc(OC)c2C1=O (stereo unspecified), the GI50 is reported as inactive: > 100 µM.
In the case of COC(OC)c1cccc2c1C(=O)CCC1(CC2)OCCCCO1, the GI50 is reported as inactive: > 100 µM.
For COC(=O)[C@@]12CCCC(=O)[C@@H]1[C@H]1CCCC[C@H]12, the GI50 was inactive: > 100 µM.
In the case of O=C1C=C(c2ccccc2)OC1C1Sc2ccccc2NC1=O (stereo unspecified), the GI50 is reported as inactive: 24.3 µM.
With CNC1C(O)C(NC)C2OC3(O)C(=O)CC(C)OC3OC2C1O (stereo unspecified) the GI50 was inactive: > 100 µM.
CC(/C=C/c1ccccc1)=N\NC(=S)N/N=C(C)/C=C/c1ccccc1 was tested, and the GI50 was inactive: 63.2 µM.
For CCOC(CCNCC(OCC)OCC)OCC, the GI50 was inactive: > 10 µM.
With CCOc1ccc(NC(=O)CC2SC(N)=NC2=O)cc1 (stereo unspecified) the GI50 was inactive: > 100 µM.
In the case of CN1c2ccccc2C(=O)Nc2cnc(Cl)nc21, the GI50 is reported as inactive: > 100 µM.
O=c1[nH]nc(-c2ccccc2)n1/N=C/c1c[nH]c2ccccc12 was tested, and the GI50 was inactive: > 100 µM.
With CC1(C)OC2COC(c3n[nH]c4c(=O)[nH]c(=O)[nH]c34)C2O1 (stereo unspecified) the GI50 was inactive: > 100 µM.
For CC(C)(Oc1ccc(-c2cccc3ccccc23)cc1)C(=O)O, the GI50 was inactive: > 100 µM.
With NC(=S)Nc1nc(=S)[nH]c2[nH]ccc12 the GI50 was inactive: > 100 µM.
With COc1ccc(C(C2=C(O)COC2=O)c2cc3c(cc2O)OCO3)cc1OC (stereo unspecified) the GI50 was inactive: > 100 µM.
For C/C=C(/C)C(=O)O[C@H](C[C@@H](C)[C@H]1CC(c2ccoc2)OC1=O)[C@@]1(C)C(=O)CCC2O[C@]21C (stereo partly specified), the GI50 was inactive: > 100 µM.
With O=C(O)c1ccccc1CC1Cc2ccccc2C1=O (stereo unspecified) the GI50 was inactive: > 100 µM.
With OCCCCCCOc1ccc(-c2cc(-c3ccccn3)nc(-c3ccccn3)c2)cc1 the GI50 was active: 0.0583 µM.
In the case of Cc1nc2ccc(Cl)cc2c(-n2ccnc2)c1CCn1ccnc1, the GI50 is reported as inactive: 26.2 µM.
In the case of COC1CC2CCC(C)[C@](O)(O2)C(=O)C(=O)N2CCCCC2C(=O)OC(C(C)CC2CCC(O)C(OC)C2)CC(=O)C(C)C=C(C)C(OC(=O)CN(C)C)C(OC)C(=O)C(C)CC(C)/C=C/C=C/C=C\1C (stereo partly specified), the GI50 is reported as inactive: 11 µM.
O=c1oc2ccccc2cc1-c1nc2ccc([N+](=O)[O-])cc2o1 was tested, and the GI50 was inactive: > 100 µM.
In the case of Oc1c(C(Nc2cccc3cccnc23)c2ccccc2)ccc2cccnc12 (stereo unspecified), the GI50 is reported as inactive: > 100 µM.
With Cc1c([N+](=O)[O-])ccc2c(NCCCN(C)C)ccnc12 the GI50 was inactive: 32 µM.
For COc1ccc(/C=c2\s/c(=C3/SC(=S)N(c4ccccc4)C3=O)n(-c3ccccc3)c2=O)cc1, the GI50 was inactive: > 100 µM.
With COC(=O)C1(C)C=CC(=O)C2(C)C1C(O)C1OC3CC(c4ccoc4)C(C)=C3C1(C)C2CC(=O)O (stereo unspecified) the GI50 was inactive: > 100 µM.
With O=C1C(Cl)=C(Cl)C(=O)N1c1ccc(F)cc1 [FLUOROIMIDE] the GI50 was inactive: > 65.9 µM.
CO/N=C(/C)c1cccc(Nc2nc3ccc(Cl)cc3c3[nH]c4ccccc4c23)c1 was tested, and the GI50 was inactive: 3.22 µM.
In the case of CC(=O)OCCc1cccnc1/C=N/O, the GI50 is reported as inactive: > 100 µM.
O=C1CCCC/C1=C\c1ccc([N+](=O)[O-])cc1 was tested, and the GI50 was inactive: 34 µM.
With CC(C)(C)c1ccc2c(c1)C#Cc1cc3c(cc1OCCCO2)C#Cc1cc(C(C)(C)C)ccc1OCCCO3 the GI50 was inactive: > 100 µM.
With Clc1ccccc1CN1COc2c(cc(Cl)c3cccnc23)C1 the GI50 was inactive: 2.9 µM.
COc1nc2c(nc(N)n2C2OCC(O)C(O)C2O)c(=O)n1C (stereo unspecified) was tested, and the GI50 was inactive: > 100 µM.
O=[N+]([O-])c1oc2ccc3ccccc3c2c1CCO was tested, and the GI50 was inactive: 2.43 µM.
Cc1oc(N)c(S(=O)(=O)/C(C#N)=C/c2ccccc2[N+](=O)[O-])c1C was tested, and the GI50 was inactive: 55.7 µM.
CC1(C)CC(=O)C2=C(C1)NC(=S)C(C#N)C2c1ccccc1 (stereo unspecified) was tested, and the GI50 was inactive: > 100 µM.
In the case of COc1cc(NS(C)(=O)=O)ccc1NCc1c[nH]c2ccc3ncccc3c12, the GI50 is reported as inactive: 21.7 µM.

Where “and” joins values, the source holds several entries; their conditions need not be identical. Identical values can stand only once.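 Where inhibition never reached the appropriate level, the endpoint shown equals the highest concentration tested. Otherwise, values were interpolated linearly from a five-concentration, 48-hour dose response in 96-well plates. Abbreviation: GI50, concentration required for 50% inhibition of growth.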 Calls of active or inactive are those of the source. Cut-off read from the data, not from the text of the source: active = GI50 up to about 1.1 µM and inactive = higher.
